Experimental data taken from the supplement of paper PMC12645437, “Orthogonal IMiD-Degron Pairs Induce Selective Protein Degradation in Cells” (ACS Chemical Biology, 2025).
This is one part of the list.

Target: no compound (DMSO)
Experiment: log2 fold change of degron read counts, EGFP-low vs EGFP+ sorted cells; higher = lower degron-EGFP level without compound (poor expression or instability)
Settings: compound: DMSO control; 18 h
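Also: jurkat cells carrying a lentiviral library of mutant zinc finger degrons fused to EGFP plus mCherry, mCherry+ cells FACS sorted, degron abundance counted by next-generation sequencing.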

For FFCPICGHSFTQKGNLLRHIKL, which “log2 fold change of degron read counts” value is on record?
The value was 0.281.

FVCNVCGAPFTQKGNLLRHIKL was tested. Which “log2 fold change of degron read counts” value did it give?
Its value is -0.797.

FCCSVCGHIFTQKGNLLRHIKL was tested. Which “log2 fold change of degron read counts” value did it give?
Its value is 0.583.

How did the “log2 fold change of degron read counts” value turn out when FECEQCGAWFTQKGNLLRHIKL was run?
The value was -0.977.

FGCDICGAGFTQKGNLLRHIKL was tested. Which “log2 fold change of degron read counts” value did it give?
Its value is -0.679.

With FYCDVCGARFTQKGNLLRHIKL as the sequence, how does the “log2 fold change of degron read counts” value read?
The value was -0.955.

Which “log2 fold change of degron read counts” value does the source give for FECPQCGAPFTQKGNLLRHIKL here?
Its value is -2.19.

With FCCEICGAIFTQKGNLLRHIKL as the sequence, how does the “log2 fold change of degron read counts” value read?
The value was -0.62.

How did the “log2 fold change of degron read counts” value turn out when FDCPVCGADFTQKGNLLRHIKL was run?
The value was -1.02.

How did the “log2 fold change of degron read counts” value turn out when FVCPQCGARFTQKGNLLRHIKL was run?
The value was -0.498.

For LGCNQCGFWCTQKGNLLRHIKL, which “log2 fold change of degron read counts” value is on record?
The value was 2.42.

With FKCNQCGALFTQKGNLLRHIKL as the sequence, how does the “log2 fold change of degron read counts” value read?
The value was -1.34.

How did the “log2 fold change of degron read counts” value turn out when FVCPQCGAAFTQKGNLLRHIKL was run?
Its value is -0.305.

With FNCDICGADFTQKGNLLRHIKL as the sequence, how does the “log2 fold change of degron read counts” value read?
The value was -1.6.

How did the “log2 fold change of degron read counts” value turn out when FNCDICGATFTQKGNLLRHIKL was run?
Its value is -1.33.

FNCEVCGAEFTQKGNLLRHIKL was tested. Which “log2 fold change of degron read counts” value did it give?
The value was -2.83.

How did the “log2 fold change of degron read counts” value turn out when FECPVCGAVFTQKGNLLRHIKL was run?
The value was 0.0657.

For FICEVCGATFTQKGNLLRHIKL, which “log2 fold change of degron read counts” value is on record?
The value was -1.93.

With FLCNVCGAPFTQKGNLLRHIKL as the sequence, how does the “log2 fold change of degron read counts” value read?
Its value is 0.217.

Which “log2 fold change of degron read counts” value does the source give for FDCEICGHTFTQKGNLLRHIKL here?
Its value is -1.23.

LECNQCGFMCTQKGNLLRHIKL was tested. Which “log2 fold change of degron read counts” value did it give?
The value was -0.429.

FVCNICGAYFTQKGNLLRHIKL was tested. Which “log2 fold change of degron read counts” value did it give?
Its value is -0.147.

With FNCEQCGAGFTQKGNLLRHIKL as the sequence, how does the “log2 fold change of degron read counts” value read?
The value was -1.6.

With FSCPQCGAPFTQKGNLLRHIKL as the sequence, how does the “log2 fold change of degron read counts” value read?
The value was -0.92.

How did the “log2 fold change of degron read counts” value turn out when FVCPICGAAFTQKGNLLRHIKL was run?
The value was -0.242.

For FWCNICGAWFTQKGNLLRHIKL, which “log2 fold change of degron read counts” value is on record?
Its value is 1.48.

FFCPICGACFTQKGNLLRHIKL was tested. Which “log2 fold change of degron read counts” value did it give?
The value was 0.441.

How did the “log2 fold change of degron read counts” value turn out when LACNQCGFLCTQKGNLLRHIKL was run?
Its value is 1.26.

How did the “log2 fold change of degron read counts” value turn out when FWCDVCGAMFTQKGNLLRHIKL was run?
The value was -0.575.

For LYCEICGFSCTQKGNLLRHIKL, which “log2 fold change of degron read counts” value is on record?
Its value is 0.195.

How did the “log2 fold change of degron read counts” value turn out when FDCSVCGHLFTQKGNLLRHIKL was run?
Its value is 1.09.

Which “log2 fold change of degron read counts” value does the source give for FVCEQCGALFTQKGNLLRHIKL here?
The value was -1.36.
